Data on 73 sequences can be found in the BET-seq Pho4 binding data (Le et al. 2018).

The other results are listed elsewhere or left out. The energies were worked out here from pooled read counts, against the library average; single values are noisy.

The test concerns the target T1, Pho4 (S. cerevisiae) (UniProt P07270).
T1 sequence: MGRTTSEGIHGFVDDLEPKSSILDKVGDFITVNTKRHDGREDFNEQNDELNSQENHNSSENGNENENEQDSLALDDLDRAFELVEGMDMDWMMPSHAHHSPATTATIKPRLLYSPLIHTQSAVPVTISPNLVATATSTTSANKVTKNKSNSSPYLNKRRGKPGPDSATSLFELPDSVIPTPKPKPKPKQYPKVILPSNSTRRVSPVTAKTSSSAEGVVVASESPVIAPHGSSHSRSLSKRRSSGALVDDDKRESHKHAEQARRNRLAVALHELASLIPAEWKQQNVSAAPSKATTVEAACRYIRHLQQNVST
Put plainly: relative binding free energy (BET-seq); higher = weaker binding. The note with it: reference: library average.
For GTAGTCACGTGTGCGT, the “relative binding free energy” value came out at 0.18 kcal/mol.

GGATACACGTGTAGTA: the “relative binding free energy” value is 0.2 kcal/mol.

For the sequence GTTGCCACGTGGAGTG, the “relative binding free energy” value was 0.09 kcal/mol.

As to GGGGTCACGTGAAATG, the “relative binding free energy” value stood at 0.47 kcal/mol.

CTATTCACGTGTTTAG: the “relative binding free energy” value was 0.08 kcal/mol.

AAAAGCACGTGGTGTT: the “relative binding free energy” value was -0.1 kcal/mol.

Consider AGATGCACGTGGGCTG, for which the “relative binding free energy” value is -0.32 kcal/mol.

With AGGCTCACGTGGGGCT, the “relative binding free energy” value came to 0.1 kcal/mol.

For the sequence TAACTCACGTGTGGTG, the “relative binding free energy” value was 0.18 kcal/mol.

As for TGGTCCACGTGTGAGA, the “relative binding free energy” value was found to be 0.18 kcal/mol.

For the sequence GTTAACACGTGAAGAG, the “relative binding free energy” value amounted to 0.25 kcal/mol.

As to GATTCCACGTGGATGG, the “relative binding free energy” value is 0.22 kcal/mol.

In the case of ATAGGCACGTGGTGGA, the “relative binding free energy” value is -0.16 kcal/mol.

For TATTGCACGTGCTGAT, the “relative binding free energy” value is -0.04 kcal/mol.

Turning to GTATTCACGTGATAGG, the “relative binding free energy” value was determined as 0.38 kcal/mol.

On to GATAACACGTGGGGCG, for which the “relative binding free energy” value was -0.04 kcal/mol.

With CGAATCACGTGATGTG, the “relative binding free energy” value stood at 0.26 kcal/mol.

Regarding GGGTACACGTGCGGGA, the “relative binding free energy” value was 0.08 kcal/mol.

With TTTGCCACGTGTAAGT, the “relative binding free energy” value was -0.09 kcal/mol.

Take ATTCGCACGTGGTGGG: the “relative binding free energy” value is -0.13 kcal/mol.

Consider AAATGCACGTGATATG, for which the “relative binding free energy” value is 0.06 kcal/mol.

Turning to TGATTCACGTGGTGTA, the “relative binding free energy” value came out at 0.16 kcal/mol.

Turning to ATTTACACGTGTCTTG, the “relative binding free energy” value stood at 0.02 kcal/mol.

On to TGTCTCACGTGGTAGT, for which the “relative binding free energy” value worked out at 0.24 kcal/mol.

Take TTAGTCACGTGACGGG: the “relative binding free energy” value is 0.13 kcal/mol.

TGCAACACGTGAGTGG: the “relative binding free energy” value amounted to 0.16 kcal/mol.

Regarding GTCATCACGTGTTAGG, the “relative binding free energy” value was determined as 0.25 kcal/mol.

Turning to AGCGGCACGTGCGTTG, the “relative binding free energy” value was -0.03 kcal/mol.

As to CTGGGCACGTGTGTCA, the “relative binding free energy” value is -0.07 kcal/mol.

On to CGTGGCACGTGTTAAG, for which the “relative binding free energy” value is -0.06 kcal/mol.

For CGGTGCACGTGTTTTG, the “relative binding free energy” value is -0.11 kcal/mol.

As for GCGGTCACGTGTAGGC, the “relative binding free energy” value turned out to be 0.15 kcal/mol.

Turning to AATTGCACGTGTTGGC, the “relative binding free energy” value amounted to 0.14 kcal/mol.

As for CAGTTCACGTGCGGGT, the “relative binding free energy” value was found to be 0.16 kcal/mol.

With ATTTTCACGTGCCTGG, the “relative binding free energy” value worked out at 0.28 kcal/mol.

As to TATGTCACGTGTAACT, the “relative binding free energy” value was 0.21 kcal/mol.

In the case of TAGAGCACGTGACGGG, the “relative binding free energy” value is -0.04 kcal/mol.

Take ATATACACGTGAGAGT: the “relative binding free energy” value was found to be 0.19 kcal/mol.

As for CGCGTCACGTGCAGGG, the “relative binding free energy” value was -0.06 kcal/mol.

For the sequence CATATCACGTGGAGTG, the “relative binding free energy” value turned out to be 0.03 kcal/mol.

ATTTACACGTGGAGAT: the “relative binding free energy” value turned out to be 0.22 kcal/mol.

TGCGTCACGTGGGAGC: the “relative binding free energy” value was -0.02 kcal/mol.

As to TTGCGCACGTGGAAGG, the “relative binding free energy” value was -0.15 kcal/mol.

Consider TCGAACACGTGTTAGT, for which the “relative binding free energy” value amounted to 0.12 kcal/mol.

As to TATGTCACGTGCATGT, the “relative binding free energy” value stood at 0.08 kcal/mol.

As to CGGTTCACGTGTGGTG, the “relative binding free energy” value came out at 0.3 kcal/mol.

For the sequence CATGTCACGTGGATTT, the “relative binding free energy” value is 0.04 kcal/mol.

For TTTGTCACGTGTCTTG, the “relative binding free energy” value turned out to be 0.05 kcal/mol.

For the sequence CGTTTCACGTGGGCAG, the “relative binding free energy” value is 0.18 kcal/mol.

ACTGTCACGTGGGGGC: the “relative binding free energy” value was -0.19 kcal/mol.

Take AGGGGCACGTGAGTTA: the “relative binding free energy” value is 0.18 kcal/mol.

Regarding GCAGTCACGTGTGCTG, the “relative binding free energy” value is 0.19 kcal/mol.

Regarding TAAGCCACGTGTTGGG, the “relative binding free energy” value was -0.17 kcal/mol.

Take GGTGTCACGTGTGGCG: the “relative binding free energy” value amounted to 0.22 kcal/mol.

As for ATTTACACGTGAGGTA, the “relative binding free energy” value was found to be 0.28 kcal/mol.

Regarding TGTGCCACGTGGTTGA, the “relative binding free energy” value was -0.07 kcal/mol.

In the case of GCTTACACGTGTGGTA, the “relative binding free energy” value was found to be 0.23 kcal/mol.

Take GTGGTCACGTGGCGAA: the “relative binding free energy” value is 0.02 kcal/mol.

Consider GTTGCCACGTGATGTT, for which the “relative binding free energy” value is 0.18 kcal/mol.

Take AGCTTCACGTGGAGGT: the “relative binding free energy” value was 0.22 kcal/mol.

As for TTGAACACGTGGGGAG, the “relative binding free energy” value is -0.05 kcal/mol.

With TTGTACACGTGGTGTA, the “relative binding free energy” value was 0.04 kcal/mol.

In the case of TACTTCACGTGGGTAA, the “relative binding free energy” value came to 0.11 kcal/mol.

For TGGCACACGTGGGGTG, the “relative binding free energy” value is -0.18 kcal/mol.

With TTAACCACGTGATTGT, the “relative binding free energy” value was 0.05 kcal/mol.

On to ACAGGCACGTGAGAGG, for which the “relative binding free energy” value stood at 0.11 kcal/mol.

For GCTTCCACGTGGTGGG, the “relative binding free energy” value was -0.01 kcal/mol.

Consider GGGTTCACGTGGTCGC, for which the “relative binding free energy” value was found to be 0.1 kcal/mol.

As for AGTTGCACGTGGGGGG, the “relative binding free energy” value is -0.08 kcal/mol.

As to TTCTGCACGTGGGTCG, the “relative binding free energy” value was -0.15 kcal/mol.

Take GTGATCACGTGGGGGC: the “relative binding free energy” value is -0.06 kcal/mol.

In the case of CGCGTCACGTGTATTG, the “relative binding free energy” value was 0.03 kcal/mol.

For ACGTTCACGTGAGTTG, the “relative binding free energy” value came to 0.28 kcal/mol.
